# This is one part of the list. One pool of 16,384 single-stranded DNAs met each Rep nickase domain in vitro (1 h at 37 °C, 3 µM enzyme); the outer parts of the 90-letter strands are left off. Numbers give uncut DNA relative to the enzyme-free pool, as log2; strong cutting gives strongly negative numbers. There is no active / inactive call. The scaling is to total reads; values above 0 arise when much of the pool is cut.
# System: T1, Rep nickase domain of maize striate mosaic virus
# T1 sequence (protein, residues 1-117, tag omitted): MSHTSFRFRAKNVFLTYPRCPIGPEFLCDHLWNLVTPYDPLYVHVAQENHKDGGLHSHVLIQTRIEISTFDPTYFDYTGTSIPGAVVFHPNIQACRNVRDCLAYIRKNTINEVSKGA
# Experiment: uncleaved DNA left, log2 of reads against the no-enzyme library (log2 ratio); higher = less cleavage (more negative = more Rep cleavage of the k-mer); sequences stand for … in CTCGTCCG…ACCGGAGA
# Experimental: (§1)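 A pool of 90-nt single-stranded DNAs with seven random bases just before the constant AC of the nick site (name = the seven bases) was cut by 3 µM recombinant His6-SUMO-tagged Rep nickase domain (300 nM DNA, 50 mM HEPES pH 8.0, 50 mM NaCl, 1 mM MnCl2, 1 h, 37 °C, three replicates). Uncut DNA was amplified and sequenced.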
row,Sequence,uncleaved DNA left (log2)
1,CTCTCGC,-1.05
2,GTATCGT,0.972
3,TCCCTAG,-1.04
4,CCCACAT,-0.00978
5,ACTCGGG,-1.05
6,GGGCCTC,2.15
7,AGTCAGA,-0.5
8,GAATTCC,1.67
9,GATTCTC,0.879
10,GTGCGTA,-0.333
11,GAAATAG,-0.942
12,CTAGGAG,-0.699
13,ACTGGAC,0.71
14,GTCTATT,1.65
15,TATTTGT,-1.02
16,AGTGAAA,0.798
17,AGCTCCT,0.584
18,CCAGGAC,1.17
19,AATTTCC,-0.406
20,ATGCCAA,-0.657

row,Sequence,uncleaved DNA left (log2)
1,GCATAAT,-0.0557
2,TTAGCCG,-1.16
3,ATAGTCT,-0.972
4,TCTTACA,-0.423
5,GCTGAGG,0.341
6,CACGTTC,-0.795
7,TGTATAA,0.379
8,GATTAAC,0.818
9,CAGGTCG,-1.07
10,GTGGTTA,1.81
11,ATAAGTT,-1.56
12,TGACTAT,1.12
13,CAAAAAT,-0.924
14,ATCGAAC,-0.635
15,GGCGCGC,0.082
16,ACACCAC,-0.372
17,CTTCGCA,-0.844
18,GCGAATG,1.65
19,CAATCTG,0.0628
20,CCCGGCC,-0.354

# System: T2, Rep nickase domain of porcine circovirus 2
# T2 sequence (protein, residues 2-116, tag omitted): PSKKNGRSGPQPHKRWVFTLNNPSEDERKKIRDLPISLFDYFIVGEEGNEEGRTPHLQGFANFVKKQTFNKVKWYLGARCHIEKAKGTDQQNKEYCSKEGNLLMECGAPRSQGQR
# Experiment: as above
# Experimental: as §1
row,Sequence,uncleaved DNA left (log2)
1,CTCTCGC,-0.122
2,GTATCGT,-0.0278
3,TCCCTAG,0.0675
4,CCCACAT,0.0086
5,ACTCGGG,0.214
6,GGGCCTC,0.205
7,AGTCAGA,-0.081
8,GAATTCC,0.195
9,GATTCTC,-1.54
10,GTGCGTA,0.112
11,GAAATAG,0.196
12,CTAGGAG,0.202
13,ACTGGAC,-0.0175
14,GTCTATT,-2.81
15,TATTTGT,-3.37
16,AGTGAAA,-0.0395
17,AGCTCCT,-1.43
18,CCAGGAC,0.197
19,AATTTCC,-3.34
20,ATGCCAA,-0.0507

row,Sequence,uncleaved DNA left (log2)
1,GCATAAT,-2.68
2,TTAGCCG,0.136
3,ATAGTCT,-0.234
4,TCTTACA,-1.88
5,GCTGAGG,0.132
6,CACGTTC,-0.0112
7,TGTATAA,0.00977
8,GATTAAC,0.0103
9,CAGGTCG,-0.0108
10,GTGGTTA,0.0256
11,ATAAGTT,-0.2
12,TGACTAT,0.0597
13,CAAAAAT,-0.561
14,ATCGAAC,0.0633
15,GGCGCGC,-0.113
16,ACACCAC,0.194
17,CTTCGCA,0.0249
18,GCGAATG,0.0489
19,CAATCTG,0.0132
20,CCCGGCC,0.167

# System: T3, Rep nickase domain of tomato golden mosaic virus
# T3 sequence (protein, residues 1-124, tag omitted): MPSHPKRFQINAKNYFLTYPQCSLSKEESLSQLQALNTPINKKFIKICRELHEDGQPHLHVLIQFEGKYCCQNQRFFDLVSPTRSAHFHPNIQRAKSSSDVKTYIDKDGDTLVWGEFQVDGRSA
# Experiment: as above
# Experimental: as §1
row,Sequence,uncleaved DNA left (log2)
1,CTCTCGC,-0.301
2,GTATCGT,0.197
3,TCCCTAG,-0.154
4,CCCACAT,0.0113
5,ACTCGGG,0.046
6,GGGCCTC,0.0328
7,AGTCAGA,0.0225
8,GAATTCC,0.0438
9,GATTCTC,-0.0384
10,GTGCGTA,0.0237
11,GAAATAG,0.0872
12,CTAGGAG,0.0454
13,ACTGGAC,-0.036
14,GTCTATT,-0.00728
15,TATTTGT,-0.0954
16,AGTGAAA,0.081
17,AGCTCCT,-0.0591
18,CCAGGAC,0.101
19,AATTTCC,-0.237
20,ATGCCAA,-0.000351

row,Sequence,uncleaved DNA left (log2)
1,GCATAAT,0.188
2,TTAGCCG,-0.108
3,ATAGTCT,-0.112
4,TCTTACA,-0.364
5,GCTGAGG,-0.0225
6,CACGTTC,-0.0691
7,TGTATAA,-0.0066
8,GATTAAC,0.0844
9,CAGGTCG,-0.118
10,GTGGTTA,0.0539
11,ATAAGTT,-0.44
12,TGACTAT,-0.0303
13,CAAAAAT,-0.156
14,ATCGAAC,-0.0516
15,GGCGCGC,-0.092
16,ACACCAC,0.0838
17,CTTCGCA,-0.0165
18,GCGAATG,-0.00281
19,CAATCTG,-0.00259
20,CCCGGCC,0.0428

# System: T4, Rep nickase domain of tomato yellow leaf curl virus
# T4 sequence (protein, residues 1-136, tag omitted): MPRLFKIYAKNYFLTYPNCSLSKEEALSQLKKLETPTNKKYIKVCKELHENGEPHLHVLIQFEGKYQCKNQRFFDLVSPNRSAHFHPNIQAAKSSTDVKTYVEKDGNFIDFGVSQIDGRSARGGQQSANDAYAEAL
# Experiment: as above
# Experimental: as §1
row,Sequence,uncleaved DNA left (log2)
1,CTCTCGC,-0.236
2,GTATCGT,0.0441
3,TCCCTAG,-0.0139
4,CCCACAT,0.0256
5,ACTCGGG,0.194
6,GGGCCTC,-0.0152
7,AGTCAGA,-0.00555
8,GAATTCC,0.103
9,GATTCTC,0.0254
10,GTGCGTA,0.0625
11,GAAATAG,0.0607
12,CTAGGAG,0.0446
13,ACTGGAC,-0.175
14,GTCTATT,0.0453
15,TATTTGT,-0.0822
16,AGTGAAA,-0.157
17,AGCTCCT,0.0776
18,CCAGGAC,-0.00074
19,AATTTCC,-0.0082
20,ATGCCAA,-0.078

row,Sequence,uncleaved DNA left (log2)
1,GCATAAT,0.146
2,TTAGCCG,-0.14
3,ATAGTCT,-0.142
4,TCTTACA,-0.0239
5,GCTGAGG,-0.0611
6,CACGTTC,-0.15
7,TGTATAA,0.103
8,GATTAAC,0.157
9,CAGGTCG,0.0959
10,GTGGTTA,-0.0145
11,ATAAGTT,-0.28
12,TGACTAT,0.024
13,CAAAAAT,-0.196
14,ATCGAAC,-0.0409
15,GGCGCGC,-0.171
16,ACACCAC,-0.0704
17,CTTCGCA,0.0207
18,GCGAATG,-0.0984
19,CAATCTG,-0.0174
20,CCCGGCC,-0.108

# System: T5, Rep nickase domain of wheat dwarf virus
# T5 sequence (protein, residues 1-137, tag omitted): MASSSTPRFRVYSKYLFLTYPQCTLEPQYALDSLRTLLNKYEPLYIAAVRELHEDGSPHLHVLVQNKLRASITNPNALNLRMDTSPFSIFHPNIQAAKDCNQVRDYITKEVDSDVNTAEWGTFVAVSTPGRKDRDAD
# Experiment: as above
# Experimental: as §1
row,Sequence,uncleaved DNA left (log2)
1,CTCTCGC,-0.0352
2,GTATCGT,0.119
3,TCCCTAG,-0.101
4,CCCACAT,0.0738
5,ACTCGGG,-0.0465
6,GGGCCTC,0.23
7,AGTCAGA,0.0609
8,GAATTCC,0.0641
9,GATTCTC,0.0819
10,GTGCGTA,0.0171
11,GAAATAG,0.0139
12,CTAGGAG,-0.0781
13,ACTGGAC,-0.0501
14,GTCTATT,-0.0731
15,TATTTGT,-0.202
16,AGTGAAA,0.14
17,AGCTCCT,0.0889
18,CCAGGAC,0.039
19,AATTTCC,-0.13
20,ATGCCAA,0.0305

row,Sequence,uncleaved DNA left (log2)
1,GCATAAT,0.016
2,TTAGCCG,-0.231
3,ATAGTCT,-0.202
4,TCTTACA,-0.737
5,GCTGAGG,-0.0467
6,CACGTTC,-0.148
7,TGTATAA,0.0516
8,GATTAAC,0.193
9,CAGGTCG,-0.02
10,GTGGTTA,-0.0598
11,ATAAGTT,-1.86
12,TGACTAT,0.153
13,CAAAAAT,-0.742
14,ATCGAAC,-0.042
15,GGCGCGC,-0.105
16,ACACCAC,0.0991
17,CTTCGCA,0.0165
18,GCGAATG,0.0301
19,CAATCTG,-0.0739
20,CCCGGCC,0.0476
